In PubChem BioAssay AID2069 (Sanford-Burnham Center for Chemical Genomics, 2009):
About 210 (18%) of roughly 1,200 compounds were called active. Rule as the data show it: active = inhibition above about 30%; inactive = the rest. The list shows a part of the results, in another mix than the full data.

assay: fluorescence readout artefact check – biochemical, HTRF, uHTS, artefact control for SUMOylation inhibitor project, confirmation (AID 2069); conditions: HTRF interference counterscreen, at 35 µM, active compounds read high

SMILES | inhibition
N#Cc1c(-c2cccc(Br)c2)cc(-c2ccco2)[nH]c1=O | active: 31.6%
O=[N+]([O-])c1c(NCCCO)cc(Sc2ccc(Cl)cc2)c2nonc12 | inactive: -10.6%
Cc1ccc(Sc2cc(NCCCO)c([N+](=O)[O-])c3nonc23)cc1 | inactive: 0.15%
Cc1nnc(Sc2cc(NCCO)c([N+](=O)[O-])c3nonc23)s1 | inactive: 4.05%
CN(c1ccccc1)c1ccc(/C=C(\CCC(=O)O)c2nc3ccccc3s2)cc1[N+](=O)[O-] | inactive: 7.85%
Cc1cccc(S(=O)(=O)C(C#N)c2nc3ccccc3nc2N2CC(C)OC(C)C2)c1 (centres undefined) | inactive: 9.45%
CC(C)(C)OC(=O)c1c(N)n(CCCN2CCCC2=O)c2nc3ccccc3nc12 | active: 41.4%
O=C(CSc1ncccn1)NCc1ccc2c(c1)OCO2 | inactive: -2.65%
CC(=O)OCCCNc1cc(SCc2ccco2)c2nonc2c1[N+](=O)[O-] | inactive: -4.35%
Cc1c(C(=O)c2ccc(F)cc2F)c2ccccn2c1CCC#N | inactive: 17.8%
Cc1cccc(C(=O)O)c1NC(=O)c1ccc(F)cc1 | inactive: -7.25%
N#CCCN(Cc1cccnc1)C(=S)NC1CC2C=CC1C2 (centres undefined) | inactive: -9.75%
O=C(Nc1ccc2nc3ccccc3nc2c1)c1ccc(Br)cc1 | inactive: 20.6%
CC(C)c1ccccc1NC(=O)COc1ccc(C(=O)NCCc2ccccc2)cc1 | inactive: -3.35%
Fc1ccc(NC(=S)Nc2ccc3nccnc3c2)cc1 | inactive: 7.9%
COc1ccc(CN2C(=O)Cc3c2nc(N)c2c(N)nc(N4CCOCC4)c(C#N)c32)cc1 | active: 42.5%
COc1ccc2c(c1)-c1nc(/N=C/c3ccc(O)cc3)sc1CC2 | inactive: -9.7%
Cc1ccc(NC(=O)Nc2cccn(Cc3c(F)cccc3Cl)c2=O)cc1 | inactive: 3.65%
Cc1cc(N2C(=O)c3ccc(C(=O)Nc4ccc(O)cc4C(=O)O)cc3C2=O)no1 | inactive: -3.45%
COC1=C(Nc2ccc(O)cc2)C(=O)c2ccccc2C1=O | inactive: -45.3%
COc1ccc(-c2ccnc3nc(/N=C/N(C)C)nn23)cc1 | active: 44.7%
CNS(=O)(=O)c1ccc2nc(NC(=O)/C=C/c3ccco3)sc2c1 | inactive: 25.6%
O=C(NC(=S)Nc1cccc2c(O)cccc12)c1cccc(Br)c1 | inactive: 17.4%
CCOc1c(Br)cc(/C=C2\C(=O)N(CCC#N)N=C2C)cc1OC | inactive: -4.9%

SMILES | inhibition
CCCCCCC#Cc1cncc(C(=O)NNC(=O)Nc2cc(Cl)cc(Cl)c2)c1 | inactive: -17%
COCCCn1c(C(=O)N2CCOCC2)cc2c(=O)n3ccccc3nc21 | active: 52.1%
CCc1ccc(S(=O)(=O)Nc2ccc(O)c3ccccc23)cc1 | inactive: -12.7%
COc1ccc(C=Nc2ccc3[nH]ncc3c2)c(O)c1 | inactive: -4.5%
C[n+]1cccc2ccc3c(c21)OC(N)=C(C#N)C3c1ccccc1 (centres undefined) | inactive: -12.1%
Cc1ccc(NC(=O)CN2C(=O)N/C(=C/c3cccn3-c3ccc(C(=O)O)cc3)C2=O)cc1 | inactive: 11.3%
Cc1ccc(N=Nc2c(N)[nH]n3c(=O)cc(C)nc23)cc1 | inactive: -0.85%
NC(N)=NS(=O)(=O)c1ccc(NC(=S)NC(=O)/C=C/c2ccco2)cc1 | inactive: 13.2%
Oc1cccc2c(NC(=S)Nc3ccc(OC(F)F)cc3)cccc12 | inactive: 13.9%
C=CCN(CC=C)c1nc2ccccc2nc1C(C#N)C(=O)OC(C)C (centres undefined) | inactive: 8.7%
COc1ccc2c(c1)C(C)=CC(C)(C)N2C(=O)Nc1ccccc1 | inactive: 11%
CN(C)c1cccc2c(C=C(C#N)C#N)ccc(N(C)C)c12 | inactive: -27.1%
CCC(C(=O)O)n1nnc(-c2ccc(OCc3ccccc3)c(OC)c2)n1 (centres undefined) | inactive: 16.9%
COCCCn1c(C(=O)N2CC(C)OC(C)C2)cc2c(=O)n3ccccc3nc21 (centres undefined) | active: 46.4%
Cc1cc(=O)[nH]c(SCC(=O)Nc2cccc(C(F)(F)F)c2)n1 | inactive: -3.4%
Cc1ccc(S(=O)(=O)c2c(N)n(/N=C/c3ccco3)c3nc4ccccc4nc23)cc1C | inactive: 8.45%
Cc1cc(NCCO)c2cc(O)ccc2n1 | active: 57.5%
Cc1ccc(C)c(S(=O)(=O)Nc2ccc(O)c3ccccc23)c1 | inactive: -12.5%
Cc1ccc(O)c(NC(=O)c2cc3nc4c(c(C(F)(F)F)n3n2)CCc2ccccc2-4)c1 | inactive: 9.8%
COc1ccc2c(c1)Cc1sc(NC(C)=O)nc1-2 | inactive: 5.1%
C=CCn1c(N)c(C(=O)OC(C)(C)C)c2nc3ccccc3nc21 | active: 32.7%
COCCCNC(=O)c1c(N)n(-c2ccccc2)c2nc3ccccc3nc12 | active: 33.6%
COc1ccc(-c2cc(C(F)(F)F)n3ncc(C(=O)NCc4ccco4)c3n2)cc1 | active: 44.1%
c1cc(Nc2ncnc3sc4c(c23)CCC4)ccn1 | active: 42.9%

SMILES | inhibition
C=CCNC(=O)C(C#N)c1nc2ccccc2nc1N1CCCCCC1 (centres undefined) | inactive: 7.7%
FC(F)(F)c1ccccc1NC(=S)Nc1cccc2cnccc12 | inactive: 1.9%
CCN(CC)C(=O)COc1ccc2oc(-c3ccco3)cc(=O)c2c1 | active: 43.6%
O=C(O)CCC(=O)Nc1ccccc1C(=O)Nc1ccccc1 | inactive: 6.3%
O=C(NCc1ccccc1)Nc1cccn(Cc2ccc(Cl)cc2)c1=O | inactive: 24.9%
Cc1ccc(C)c(S(=O)(=O)C(C#N)c2nc3ccccc3nc2N2CC(C)OC(C)C2)c1 (centres undefined) | inactive: 5.5%
O=C1N=c2ccccc2=C1c1c(O)n(-c2cccc(F)c2)[nH]c1=O | inactive: -9.65%
Cc1ccc(-n2c(SCC(=O)Nc3ccc4c5c(cccc35)CC4)nc(O)cc2=O)cc1 | inactive: 2.9%
O=C(c1ccc2c(c1)[nH]c(=S)n1c3ccccc3nc21)N1CCN(c2ncccn2)CC1 | inactive: 11.9%
O=C1C(Cl)=C(N2CCN(c3ccccc3[N+](=O)[O-])CC2)C(=O)c2ccccc21 | inactive: -5.85%
O=C(Nc1ccccc1-c1nc2ccccc2s1)c1cccnc1Cl | active: 64%
O=C1N=c2ccccc2=C1c1sc(Nc2ccc(O)cc2)nc1O | inactive: -1.9%
Cc1nnc(N/N=C\c2ccc(-c3ccccc3[N+](=O)[O-])o2)n1N | inactive: 16%
O=C1/C(=C\c2ccco2)SC(=S)N1C1CCS(=O)(=O)C1 (centres undefined) | inactive: -10.2%
CC(=O)NC1C(=O)N(CCN2CCOCC2)c2ccc(Br)cc21 (centres undefined) | active: 32.2%
O=C(O)/C=C/c1cn(-c2ccccc2)nc1-c1cc2ccccc2o1 | active: 41.2%
C/C(=N\NC(=O)c1cc(O)cc(O)c1)c1ccc(NC(=O)Cc2ccccc2)cc1 | inactive: 25.6%
N=C1/C(=C\c2ccc(SCc3ccco3)o2)C(=O)N=C2SC=NN12 | inactive: 2.25%
Cc1ccsc1C=Nc1ccc(O)cc1 | inactive: 6.8%
Cn1c(C(=O)N2COCC2(C)C)cc2c(=O)n3ccccc3nc21 | active: 55.8%
COc1ccc2nc(-c3ccco3)c(-c3ccco3)nc2c1 | active: 33.1%
CN(C)/C=N/c1nc2nccc(-c3cccc(Cl)c3)n2n1 | active: 57.1%
COc1ccccc1NC(=O)Nc1ccnn1Cc1cccs1 | active: 63.1%
CCOC(=O)c1c(NC(=O)c2ccco2)n(C2CCCCC2)c2nc3ccccc3nc12 | inactive: 21.2%

SMILES | inhibition
Fc1ccc(-c2nc3cnccn3c2NC2CCCC2)cc1 | active: 57.9%
COc1ccc2c(c1)Cc1sc(NC(=O)c3ccco3)nc1-2 | inactive: 0.75%
O=C(COc1ccc2oc(-c3ccco3)cc(=O)c2c1)N1CCCCC1 | active: 39.8%
CCOC(=O)c1c(-c2ccccc2)oc2ccc(OC(C)C(=O)O)cc12 (centres undefined) | active: 58.6%
Oc1oc(-c2ccccc2)nc1C=Nc1cccc2ccccc12 | inactive: 10.8%
CC(/C=C1\SC(=S)N(C(C(=O)O)c2ccccc2)C1=O)=C\c1ccccc1 (centres undefined) | inactive: -3.8%
CC(=O)c1ccc(N2CCN(C(=O)c3cccs3)C(C)C2)c(F)c1 (centres undefined) | inactive: 23.4%
COCCn1nnnc1C(c1cc2ccc(OC)cc2[nH]c1=O)N1CCc2ccccc2C1 (centres undefined) | inactive: 3.8%
COc1ccc(-n2c(NC(=O)c3ccco3)c(C#N)c3nc4ccccc4nc32)cc1 | inactive: 4.15%
COc1ccc(Cn2c(C)c(C)c(C#N)c2NC(=O)Nc2ccc(F)cc2)cc1 | inactive: 1.75%
O=C(Nc1ccccc1)Oc1ccc[nH]c1=O | inactive: 16.8%
O=C1CC(c2ccco2)CC(O)=C1C=NCC1NCCc2ccccc21 (centres undefined) | inactive: 14.2%
Cc1nn(-c2ccccc2)c2c1C(c1ccc(F)cc1)C(C#N)=C(N)O2 (centres undefined) | inactive: -6.15%
Cc1c(C(=O)O)cccc1-c1ccc(/C=C2\SC(=O)NC2=O)o1 | inactive: -1%
CC1(C)Nc2ccc(O)cc2-c2c1ssc2=S | inactive: -19.1%
Cc1[nH][nH]c(=O)c1C(c1ccc(-c2ccc(F)cc2)o1)c1c(C)[nH][nH]c1=O | inactive: -13.8%
Oc1ccc2ccccc2c1C=Nc1ccc(Cl)cn1 | active: 37.1%
COc1ccc(/C=C/c2cc(C(=O)O)c3ccccc3n2)cc1 | active: 68.2%
N#CC1=C(N)Oc2n[nH]c(-c3cccs3)c2C1c1cccs1 (centres undefined) | inactive: -14.2%
COc1ccc(-n2c3nc4ccccc4nc3c3c(=N)oc(C)nc32)cc1 | inactive: -1.2%
Clc1ccc(C2=CSC3=Nc4cccc5cccc(c45)N23)cc1 | inactive: -14.9%
COc1ccc(-c2nc3ccc([N+](=O)[O-])cc3[nH]2)cc1 | inactive: 23.2%
